The other results are listed elsewhere or left out. Construct or isoform of the protein are uncertain.
Molecular target: GST-SBP-ILF3 (Homo sapiens) (UniProt Q12906)
Test: targeted RNA Bind-n-Seq
Conditions: RBNS binding buffer: 25 mM Tris pH 7.5, 150 mM KCl, 3 mM MgCl2, 0.1% Tween, 0.5 mg/mL BSA, 1 mM DTT; 27 nM protein, 750 pM RNA pool; temperature not stated; high values mean tight binding; sequences stand for … in GGGUAAAAGCGAGGUGAA…CGGGACAAGUAUUAUGGG

| Sequence | binding signal (log2 fold change) |
| --- | --- |
| UUUUUUUUUUGAGACUGCGGCAGUUUCCGG [tttttgagapaired] | 0.873 |
| GUGUGGUGUGUUGGAGUCUAACACACCGCG [gtspaired] | -0.527 |
| UUUUUUUUUUGAGAGCGGCACGCUCUCCAG [tttttgagapaired] | 0.338 |
| UUUUUUUUUUGAGAGCGGAUCGCUCUCCUG [tttttgagapaired] | 0.355 |
| GUGGUGUGUGUUGGAUUCUAACACAUACCA [gtspaired] | -0.228 |
| GGUGGUGGUGUUGGUCCCUAACACCGCUAC [gtspaired] | -0.135 |
| UUUUUUUUUUGAGAGCGGUCCGUUCUCCAG [tttttgagapaired] | 0.68 |
| GUUGGUGGUGUUGGUCUCUAACACCGCCGA [gtspaired] | -0.3 |
| UUUUUUUUUUGAGACUGCUACAGUUUCCAG [tttttgagapaired] | 0.4 |
| GGUUGGUGUGUUGGUUCCUAACACAUCGAC [gtspaired] | -1.08 |
| UUUUUUUUUUGAGAACGAGGCGUUCUCCGG [tttttgagapaired] | 0.103 |
| UUUUUUUUUUGAGAGGGGAUCCCUCUCCAG [tttttgagapaired] | 0.281 |
| UUUUUUUUUUGAGAGGGUCCCCCUCUUCUA [tttttgagapaired] | 0.646 |
| GUGGUUGGUGUUGGCAUCUAACACCGACUA [gtspaired] | -0.774 |
| UUUUUUUUUUGAGAGGGAACCCCUCUUCUA [tttttgagapaired] | -0.0654 |
| GUGGUGUGUGUUGGCGCCUAACACACACUA [gtspaired] | -0.394 |
| UUUUUUUUUUGAGAGGGACUCCCUCUCCGG [tttttgagapaired] | 0.289 |
| GUGUGGUGUGUUGGCUCCUAACACACUACG [gtspaired] | -0.49 |
| UUUUUUUUUUGAGACGGAGCCCGUCUCCUA [tttttgagapaired] | 0.773 |
| UUUUUUUUUUGAGAGGGGAUCCCUUUCCUA [tttttgagapaired] | 0.0989 |
| UUUUUUUUUUGAGAGCGGUACGCUCUCCGG [tttttgagapaired] | 0.106 |
| UUUUUUUUUUGAGAUGGCAGCCAUCUUCUA [tttttgagapaired] | 0.302 |
| GUGUGUUGUGUUGGUCUCUAACACAGCGCG [gtspaired] | -0.732 |
| UUUUUUUUUUGAGAUGGUGACCAUUUCCGG [tttttgagapaired] | 0.588 |
| GUGUUGUGUGUUGGCUCCUAACACACAACG [gtspaired] | -0.362 |
| UUUUUUUUUUGAGAUGGAUACCAUCUUCUA [tttttgagapaired] | -0.336 |
| UUUUUUUUUUGAGAUGGACUCCAUCUUCUG [tttttgagapaired] | 0.249 |
| GUGUGGUGUGUUGGCGCCUAACACAUCACG [gtspaired] | -0.596 |
